The campaign covered roughly 46,000 compounds. About 60 (0.1%) were called active. Roughly 3% stayed inconclusive and do not appear here. Calls come from the whole dose curve; as a rule, active = well fitted inhibition curve with a large enough effect; inconclusive = small, poorly fitted or top-dose-only effect; inactive = no such curve, though single readings can be large or run the other way. The list shows a part of the results.

The assay in a line: Primary qHTS assay for Inhibitors of ovarian cancer metastasis using an organotypic tumor microenvironment (TME) model.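 For activity change, negative = inhibition: plate controls were DMSO wells for no effect and tomatine positive control wells for full effect.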 Note: nearly all actives have a fitted effect of over 65% in size. Conditions: SKOV3ip1-GFP adhesion/invasion on 3D omental model, fluorescence; series mostly up to 45.8 µM; activity change, negative = inhibition: at the top concentration. The essentials:
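Primary human omental fibroblast/mesothelial 3D culture pre-formed 48 h. SKOV3ip1-GFP cells added with compounds (0.36-46 umol/L), incubated 2 h RT/16 h 37 C, fixed; GFP cells quantified at 488/509 nm.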
(In general: Quantitative high-throughput screening tests each substance at several concentrations.)
On to `CCOC(=O)c1cc(OC(=O)c2ccccc2OC)n(-c2ccccc2)n1`, for which the “activity change, negative = inhibition” value was inactive: -0.146%. `COc1ccc(N(C(=O)c2cccc(C)c2)S(=O)(=O)c2ccc3c(c2)n(C)c(=O)n3C)cc1`: the “activity change, negative = inhibition” value is inactive: -1.51%. Same read-out and setting: the value for `CCN1C(=O)c2ccccc2Sc2ccc(NC(=O)c3cccc(C)c3)cc21` was inactive: -3.74%. On to `Cc1ccc(NC(=O)Nc2cccs2)c(C)c1`, for which the result was inactive. On to `CCc1ccc(N(CC)C(=O)c2sc3nc4n(c(=O)c3c2C)CCCC4)cc1`, for which the “activity change, negative = inhibition” value is inactive: 19.7%. For the molecule `CCOc1ccc(CCNC(=O)c2ccc(-c3nc(CSc4ccccc4)c(C)o3)cc2)cc1`, the outcome was inactive. As for `COc1ccc(OCC(=O)N(Cc2ccc(C)o2)C2CCS(=O)(=O)C2)cc1` (centres undefined), the “activity change, negative = inhibition” value is inactive: -3.27%. Turning to `Cc1cccc(CC(=O)NCCc2sc3nc(-c4ccc(F)cc4)nn3c2C)c1`, the outcome was inactive.

Consider `CN1CCN(C(=O)c2ccc3c(c2)N(Cc2ccc(Cl)cc2)C(=O)c2ccccc2S3(=O)=O)CC1`, for which the result was inactive. Regarding `CCC(C)NC(=O)CSCc1nc(-c2ccc(C)cc2)oc1C` (centres undefined), the “activity change, negative = inhibition” value is inactive: 0.293%. Take `O=C(c1ccccc1Br)N(Cc1ccccc1F)C1CCS(=O)(=O)C1` (centres undefined): the “activity change, negative = inhibition” value was inactive: -4.58%. With `Cc1cccc(NS(=O)(=O)c2ccc3c(c2)CCN3C(=O)C2CC2)c1C`, the molecule was called inactive.

`Cn1nnnc1SCCCNCc1ccccc1OCc1ccc(F)cc1`: the “activity change, negative = inhibition” value is inactive: 1.93%. `O=C(Cn1c(=O)ccc2cc(S(=O)(=O)N3CCCC3)ccc21)Nc1ccc(Cl)cc1`: the result was inactive.

Regarding `COc1cccc(-c2nc(SCc3cccc(Br)c3)n3[nH]c(=O)cc3n2)c1`, the “activity change, negative = inhibition” value was inactive: 27.7%. Take `O=C(CCc1ccccc1)NCc1ccc2c(c1)CCN2C(=O)c1ccccc1`: the molecule was classed as inactive. `Nc1c(C(=O)Nc2ccc(C(F)(F)F)cc2)sc2nc(-c3cccs3)ccc12`: the molecule was classed as inactive. Turning to `COc1ccccc1N1CCN(c2ccc(=O)n(CC(=O)Nc3cc(F)ccc3C)n2)CC1`, the “activity change, negative = inhibition” value is inactive: 25.6%. Same read-out and setting: the value for `COc1cc2c(cc1OC)C(c1ccc(Cl)cc1)N(c1cccc(C#N)c1)C(=O)C2` (centres undefined) was inactive: -3.98%.

Consider `COc1ccc(-n2c(SCC(=O)c3ccc(Cl)cc3)nc3c([nH]c4ccccc43)c2=O)cc1`, for which the outcome was inactive. In the case of `COc1ccccc1NC(=O)c1oc2ccccc2c1NC(=O)Cc1cccs1`, the “activity change, negative = inhibition” value was inactive: -24.2%. The same measure, in the same setting: for `CC(=O)N1CCc2c(sc3c2c(=O)n(CCc2ccccc2)c(=O)n3CC(=O)Nc2ccccc2F)C1` the value was inactive: -0.132%; for `Cc1ccccc1Nc1sc(C(=O)c2ccccc2)c(N)c1S(C)(=O)=O`, inactive: -0.0587%; for `Cc1c(CC(=O)N2CCCCC2)c(=O)oc2cc(O)ccc12`, inactive: 7.04%. For `Cn1cc(S(=O)(=O)N2CCCCCC2)cc1C(=O)N1CCN(c2ccccc2F)CC1`, the “activity change, negative = inhibition” value is inactive: 23.7%. Consider `CCc1ccc(NC(=O)CN2C(=O)C3CCCN3c3ccc(S(=O)(=O)N(CC)CC)cc32)cc1` (centres undefined), for which the outcome was inactive. On the same count and under the same terms, the value for `COc1ccc(CCNc2ncnc3onc(-c4ccc(Cl)cc4)c23)c(OC)c1` was “inactive”. Regarding `COc1ccc2c(Sc3ccc(C)cc3)c(C(=O)NCC(C)c3ccccc3)[nH]c2c1` (centres undefined), the “activity change, negative = inhibition” value was inactive: 4.89%. Same read-out and setting: the value for `CCOC(=O)c1ccc(N2CC3=C(C2=O)C(c2ccc(OC)cc2)NC(=O)N3C)cc1` (centres undefined) was inactive: 10.4%; that for `Cc1ccc(-c2nc3cc(NC(=O)Cc4ccc(Cl)cc4)ccc3o2)cc1` was inactive: -0.314%. `Cc1cc(NC(=O)CSc2nc(-c3cccc(F)c3)nc3c2c(=O)n(C)c(=O)n3C)no1`: the “activity change, negative = inhibition” value was inactive: 12.1%.

`CCc1ccc(NC(=O)Cn2c(=O)n(CCCC(=O)NCc3ccccc3Cl)c(=O)c3ccccc32)cc1`: the molecule was classed as inactive.

For `COc1ccc2oc(=O)c(C(=O)NCCc3c(C)[nH]c4ccc(C)cc34)cc2c1`, the outcome was inactive.

As to `COc1ccccc1NC(=O)Cn1cnc2ccc(S(=O)(=O)N3CCC(C)CC3)cc2c1=O`, the outcome was inactive. On to `C[C@H](NC(=O)Cc1cc(F)cc(F)c1)C(=O)N[C@H](C(=O)OC(C)(C)C)c1ccccc1`, for which the “activity change, negative = inhibition” value was inactive: 19.7%. On to `COc1ccc(N(CC(=O)N2CCN(c3ccccc3F)CC2)S(=O)(=O)c2c(C)noc2C)cc1`, for which the call was inactive.

For the molecule `Cc1ccc(CNC(=O)c2cc3c(=O)oc4ccc(C)cc4c3s2)cc1`, the “activity change, negative = inhibition” value is inactive: 5.14%. As for `COc1ccccc1-c1nc2c(c(SCc3cc(C)ccc3C)n1)Cc1c(CO)cnc(C)c1O2`, the “activity change, negative = inhibition” value was inactive: 2.66%.

On to `Cc1cccc(OCC(=O)Nc2ccc(S(=O)(=O)Nc3onc(C)c3C)cc2)c1C`, for which the “activity change, negative = inhibition” value was inactive: 2.55%. For the molecule `Cc1ccccc1NC(=O)C(Cc1ccccc1)N1Cc2ccccc2C1=O` (centres undefined), the outcome was inactive. For `O=C(Nc1noc2ccccc12)c1cccc(Cl)c1Cl`, the outcome was inactive. As for `COc1ccc(CNC(=O)c2cc3sccc3n2Cc2ccc(F)cc2)cc1`, the “activity change, negative = inhibition” value was inactive: -0.615%. `COCCCN1C(=O)c2[nH]nc(-c3cc(C)ccc3O)c2C1c1ccc(F)cc1` (centres undefined): the “activity change, negative = inhibition” value is inactive: -12.4%. As to `CN(C)c1ccc(O)c2c1C[C@H]1C[C@H]3[C@H](N(C)C)C(=O)C(C(N)=O)=C(O)[C@@]3(O)C(=O)C1=C2O`, the “activity change, negative = inhibition” value was inactive: -11.1%. On to `Cc1ccc(NC(=O)C2CCCN(C(=O)c3cnn(-c4ccccc4)c3-n3cccc3)C2)cc1` (centres undefined), for which the molecule was classed as inactive. On to `COc1ccc(NC(=O)Cn2c(=O)n(Cc3ccco3)c(=O)c3sc4ccccc4c32)c(OC)c1`, for which the molecule was called inactive. Still for that read-out and setting: the value for `Cc1nn(-c2ccccc2)c(-n2cccc2)c1C(=O)N1CCN(c2ccccc2)CC1` was “inactive”; that for `Cc1cc(OCC(=O)N(Cc2ccc(N(C)C)cc2)Cc2ccco2)cc(C)c1Cl` was “inactive”. With `CCOC(=O)c1ccc(OC(=O)c2cn(-c3ccc(C)cc3)c(=O)c3ccccc23)cc1`, the “activity change, negative = inhibition” value is inactive: 2.06%. Turning to `Cc1c(Cl)cccc1NC(=O)c1cc(S(=O)(=O)N2CCCCC2)cn1C`, the molecule was classed as inactive. Consider `COc1ccccc1/C=C/c1onc(C)c1S(=O)(=O)N1CCC(C(=O)N2CCC(C)CC2)CC1`, for which the result was inactive.

`Cc1ccc2oc(=O)c3cc(C(=O)Nc4ccc(C)c(F)c4)sc3c2c1`: the molecule was classed as inactive. Consider `CCc1nnc(NC(=O)CSc2nc3c([nH]c4ccccc43)c(=O)n2-c2ccc(F)cc2)s1`, for which the “activity change, negative = inhibition” value was inactive: 9.44%. The same measure, in the same setting: the value for `Cc1ccccc1NC(=O)CSc1nc2ccc(NC(=O)CCc3ccccc3)cc2s1` was inactive: -5.53%; that for `COC(=O)c1sccc1S(=O)(=O)N(CC(=O)Nc1ccccc1C)c1ccc(Cl)cc1` was inactive: 5.98%; that for `Cc1cccn2c(=O)cc(COc3ccc(NC(=O)C(C)C)cc3)nc12` was inactive: -2.18%. Consider `Nc1ccc2oc(-c3ccccc3Br)nc2c1`, for which the “activity change, negative = inhibition” value was inactive: 2.82%. Still for that read-out and setting: for `Cc1ccc(-n2nc(C)c3c(C)cc(=O)n(CC(=O)Nc4cc(Cl)ccc4C)c32)cc1` the value was inactive: 2.63%; for `Cc1cc(NS(=O)(=O)c2cn(C)c(C)n2)ccc1Br`, inactive: 23.8%. Same read-out and setting: for `COc1cccc(C(=O)COC(=O)c2cc(-c3cccs3)nc3ccccc23)c1` the value was inactive: 0.357%; for `Cc1nc(-c2ccc(S(=O)(=O)NCc3ccc(F)cc3)cc2)co1`, inactive: -10.6%; for `COc1ccc(C(=O)NCc2nc(-c3cccc(C)c3)no2)cc1OC`, inactive: 0.0309%. For `CCc1ccccc1NC(=O)C1CCN(c2nc3ccccc3[nH]2)CC1`, the “activity change, negative = inhibition” value is inactive: 4.87%. The same measure, in the same setting: for `Cc1ccc(-n2nc(C)c(C(=O)NCCCN3CCN(c4cccc(Cl)c4)CC3)c2-n2cccc2)cc1` the value was inactive: -20.3%. Turning to `Cc1ccc(CCNc2nc3ccccc3c3nc(-c4cccnc4)nn23)cc1`, the molecule was called inactive. The same measure, in the same setting: the value for `Cc1ccc(C)c(CN2C(=O)c3ccccc3S(=O)(=O)c3ccc(C(=O)NCCc4ccc(Cl)cc4)cc32)c1` was “inactive”. With `COc1cccc(CNC(=O)CCc2c(C)nc3c4c(C)cc(C)nc4nn3c2C)c1`, the “activity change, negative = inhibition” value is inactive: -6.04%. Still for that read-out and setting: the value for `Cc1ccccc1OCC(=O)Nc1nnc(SCc2cc(=O)n3cc(Cl)ccc3n2)s1` was inactive: 0.817%; that for `O=C(Nc1ccc(Oc2ccccc2)cc1)c1ccc(F)c(S(=O)(=O)N2CCN(c3ccccc3F)CC2)c1` was inactive: 13.9%; that for `Cc1cc(C)nc(-n2nc(C)c3c2N(Cc2ccccc2C)C(=O)CC3c2ccc(Cl)cc2)n1` (centres undefined) was inactive: 8.13%. On to `CCc1ccc(NC(=O)Cn2c(=O)nc(-c3ccccc3F)c3cc(Cl)ccc32)cc1`, for which the molecule was called inactive.

As for `COC(=O)c1ccccc1N(C)S(=O)(=O)c1cc2c3c(c1)CC(=O)N3CCC2`, the “activity change, negative = inhibition” value was inactive: -13%. As for `CC(C)CCSc1nnc2n(-c3ccccc3)c(=O)c3c4c(sc3n12)CC(C)CC4` (centres undefined), the “activity change, negative = inhibition” value was inactive: -4.97%. The same measure, in the same setting: for `CCOC(=O)c1c(C)[nH]c(C)c1S(=O)(=O)NCC(=O)NCc1cccc(Br)c1` the value was inactive: 2.65%. The same measure, in the same setting: the value for `O=C(Cn1cc(S(=O)(=O)Cc2cccc(Cl)c2)c2ccccc21)NCc1ccccc1Cl` was inactive: -6.63%; that for `Cc1ccc(S(=O)(=O)Nc2cccc(-c3ccc(N4CCCC4)nn3)c2)c(C)c1` was inactive: -1.18%.

In the case of `COc1cccc(NC(=O)/C(C#N)=C/c2ccc(-c3ccc(C)cc3)o2)c1`, the “activity change, negative = inhibition” value is inactive: 4.79%.

As to `Cc1ccc2cc3cc(C(=O)N4CCN(c5ccccc5)CC4)sc3nc2c1`, the “activity change, negative = inhibition” value is inactive: 9.35%. As to `CN(C)c1ccc(CNC(=O)CCCN2C(=O)CCn3nc(-c4cn(C)c5ccccc45)cc32)cc1`, the call was inactive. In the case of `N#Cc1ccccc1OCC(=O)N1CCN(c2ccccc2)CC1`, the “activity change, negative = inhibition” value is inactive: 9.2%. Same read-out and setting: the value for `CCCN1CCN(CCCNC(=O)c2cc3c(s2)-c2ccccc2OC3)CC1` was inactive: 0.437%; that for `CNc1nccc(-c2cccnc2Oc2cc(C(=O)Nc3cccc(C(F)(F)F)c3)ccc2C)n1` was inactive: -0.781%. Same read-out and setting: for `COCCn1c(C)cc(O)c(C(c2ccccc2Cl)N2CCCCC2)c1=O` (centres undefined) the value was inactive: -5.68%; for `Cc1coc2c(C)c3oc(=O)c(CCC(=O)N4CCCCC4)c(C)c3cc12`, inactive: -8.45%; for `O=C(Cn1ccc2cc(S(=O)(=O)N3CCCCCC3)ccc21)NCc1cccc(Cl)c1`, inactive: -13.2%. The same measure, in the same setting: for `CCCNc1ncnc2c1c(-c1ccccc1)cn2-c1ccccc1` the value was inactive: 0.764%; for `CCS(=O)(=O)Nc1ccc2[nH]c(O)c(C(=Nc3ccc(CN4CCCCC4)cc3)c3ccccc3)c2c1`, inactive: 33.2%; for `COc1ccc(-c2nsc(NC(=O)c3oc4ccccc4c3C)n2)cc1`, inactive: -8.31%. For the molecule `CCn1cc(C(=O)N2CCN(c3cccc(C)c3)C(C)C2)c(=O)c2cc(S(=O)(=O)N3CCOCC3)ccc21` (centres undefined), the “activity change, negative = inhibition” value was inactive: 3.16%. On the same count and under the same terms, for `C[C@H](NC(=O)[C@@H](O)c1cc(F)cc(F)c1)C(=O)N[C@@H]1C(=O)N(C)c2ccccc2-c2ccccc21` the value was inactive: -0.223%.

On to `Cc1cccc(C)c1NC(=O)C1CCCN1S(=O)(=O)c1cccc2nsnc12` (centres undefined), for which the molecule was classed as inactive.

In the case of `COc1ccc(NC(=O)Cn2nnc(-c3nc(-c4ccncc4)no3)c2N)cc1OC`, the “activity change, negative = inhibition” value was inactive: 4.83%.

As to `Cc1ccc(Cn2cc(CCC(=O)NCC(C)c3ccccc3)c3ccccc32)cc1` (centres undefined), the molecule was classed as inactive.

For the molecule `COc1ccccc1CCNC(=O)C(=O)NCC(c1cccnc1)N1CCN(c2ccccc2)CC1` (centres undefined), the “activity change, negative = inhibition” value is inactive: 8.87%.

The record behind these values is PubChem BioAssay AID1963576 (National Center for Advancing Translational Sciences (NCATS), 2024).
